According to ChEMBL document CHEMBL1201862, “PubChem BioAssay data set” (2004):
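Grown in 96-well plates, cells were treated for 48 hours with each compound at five concentrations. Insufficient inhibition: endpoint recorded as highest concentration tested. The concentration for 50% growth inhibition is given as GI50.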 Calls of active or inactive are those of the source. No stated cut-off is given here; in the data, active = GI50 up to about 1.1 µM and inactive = higher.

What was measured:
Experiment in all cases: NCI-60 cell line screen, 48 h
786-0 = system: 786-0
A498 = system: A498
A549 = system: A549
ACHN = system: ACHN
BT-549 = system: BT-549
CAKI-1 = system: CAKI-1
CCRF-CEM = system: CCRF-CEM
COLO 205 = system: COLO 205
DMS-114 = system: DMS-114
DMS-273 = system: DMS-273
DU-145 = system: DU-145
EKVX = system: EKVX
HCC 2998 = system: HCC 2998
HCT-116 = system: HCT-116
HCT-15 = system: HCT-15
HL-60 = system: HL-60
HOP-18 = system: HOP-18
HOP-62 = system: HOP-62
HOP-92 = system: HOP-92
HT-29 = system: HT-29
Hs-578T = system: Hs-578T
IGROV-1 = system: IGROV-1
K562 = system: K562
KM-20L2 = system: KM-20L2
KM12 = system: KM12
LOX IMVI = system: LOX IMVI
LXFL 529 = system: LXFL 529
M14 = system: M14
M19-MEL = system: M19-MEL
MCF7 = system: MCF7
MDA-MB-231 = system: MDA-MB-231
MDA-MB-435 = system: MDA-MB-435
MDA-N = system: MDA-N
MOLT-4 = system: MOLT-4
Malme-3M = system: Malme-3M
NCI-H226 = system: NCI-H226
NCI-H23 = system: NCI-H23
NCI-H460 = system: NCI-H460
NCI-H522 = system: NCI-H522
NCI/ADR-RES = system: NCI/ADR-RES
OVCAR-3 = system: OVCAR-3
OVCAR-4 = system: OVCAR-4
OVCAR-5 = system: OVCAR-5
OVCAR-8 = system: OVCAR-8
PC-3 = system: PC-3
RPMI-8226 = system: RPMI-8226
RXF 393 = system: RXF 393
SF-268 = system: SF-268
SF-295 = system: SF-295
SF-539 = system: SF-539
SK-MEL-28 = system: SK-MEL-28
SK-MEL-2 = system: SK-MEL-2
SK-MEL-5 = system: SK-MEL-5
SK-OV-3 = system: SK-OV-3
SN12C = system: SN12C
SNB-19 = system: SNB-19
SNB-75 = system: SNB-75
SR = system: SR
SW-620 = system: SW-620
T47D = system: T47D
TK-10 = system: TK-10
U-251 = system: U-251
UACC-257 = system: UACC-257
UACC-62 = system: UACC-62
UO-31 = system: UO-31

CN[C@H]1CCc2cc(OC)c(OC)c(OC)c2-c2ccc(SC)c(=O)cc21 was tested, and the GI50 (786-0) was active: 11.8 nM, the GI50 (A498) was active: < 10 nM and the GI50 (A549) was active: < 10 nM. The GI50 (ACHN) was active: 10.1 nM, the GI50 (BT-549) was active: < 10 nM and the GI50 (CAKI-1) was active: 10.5 nM. For the same compound, the GI50 (CCRF-CEM) was active: < 10 nM, the GI50 (COLO 205) was active: < 10 nM and the GI50 (DMS-114) was active: < 10 nM. For the same compound, the GI50 (DMS-273) was active: < 10 nM, the GI50 (DU-145) was active: < 10 nM and the GI50 (EKVX) was active: 63.1 nM. For the same compound, the GI50 (HCC 2998) was active: < 10 nM, the GI50 (HCT-116) was active: < 10 nM and the GI50 (HCT-15) was less than 10 nM. For the same compound, the GI50 (HL-60) was active: < 10 nM, the GI50 (HOP-18) was inactive: > 100000 nM and the GI50 (HOP-62) was active: 11.9 nM. The GI50 (HOP-92) was active: 31.6 nM, the GI50 (HT-29) was active: < 10 nM and the GI50 (Hs-578T) was active: < 10 nM. The GI50 (IGROV-1) was active: < 10 nM, the GI50 (K562) was active: < 10 nM and the GI50 (KM-20L2) was active: 17.8 nM. The GI50 (KM12) was active: < 10 nM, the GI50 (LOX IMVI) was active: 10.5 nM and the GI50 (LXFL 529) was active: < 10 nM. The GI50 (M14) was active: < 10 nM, the GI50 (M19-MEL) was active: < 10 nM and the GI50 (MCF7) was active: < 10 nM. The GI50 (MDA-MB-231) was active: < 10 nM, the GI50 (MDA-MB-435) was active: < 10 nM and the GI50 (MDA-N) was active: < 10 nM. For the same compound, the GI50 (MOLT-4) was active: < 10 nM, the GI50 (Malme-3M) was active: 42.9 nM and the GI50 (NCI-H226) was active: 92.5 nM. The GI50 (NCI-H23) was active: < 10 nM, the GI50 (NCI-H460) was active: < 10 nM and the GI50 (NCI-H522) was active: < 10 nM. The GI50 (NCI/ADR-RES) was active: 15.4 nM, the GI50 (OVCAR-3) was active: < 10 nM and the GI50 (OVCAR-4) was inactive: 8450 nM. For the same compound, the GI50 (OVCAR-5) was active: 265 nM, the GI50 (OVCAR-8) was active: < 10 nM and the GI50 (PC-3) was active: < 10 nM. For the same compound, the GI50 (RPMI-8226) was active: < 10 nM, the GI50 (RXF 393) was active: < 10 nM and the GI50 (SF-268) was active: 13.3 nM. The GI50 (SF-295) was active: < 10 nM, the GI50 (SF-539) was active: < 10 nM and the GI50 (SK-MEL-28) was active: 33.3 nM. For the same compound, the GI50 (SK-MEL-2) was active: < 10 nM, the GI50 (SK-MEL-5) was active: < 10 nM and the GI50 (SK-OV-3) was active: 22.4 nM. The GI50 (SN12C) was active: 30.2 nM, the GI50 (SNB-19) was active: 49.4 nM and the GI50 (SNB-75) was active: < 10 nM. The GI50 (SR) was active: < 10 nM, the GI50 (SW-620) was active: < 10 nM and the GI50 (T47D) was inactive: 51900 nM. For the same compound, the GI50 (TK-10) was inactive: 1160 nM, the GI50 (U-251) was active: < 10 nM and the GI50 (UACC-257) was active: 855 nM. For the same compound, the GI50 (UACC-62) was active: < 10 nM and the GI50 (UO-31) was active: 46.2 nM.
